Source: PubChem BioAssay
Several values for one entry are separate records, joined by “and”; a condition that tells them apart may be missing. Equal entries are not always repeated. Some of the results follow. The source made no clear call on entries shown without one. Residues, ends and D or L forms follow the SMILES beside them.

Test: PubChem AID 1587
Details: rat spinal cord organotypic slices, stronger effect = higher value

Row | Structure (SMILES) | normalized EAAT2 expression
1 | CC(=O)Oc1ccc2c(c1)CCC1C2CCC2(C)C(=O)CCC12 (centres undefined) | 0.87
2 | CN(C)CCOC(c1ccccc1)c1ccccc1 (tested in a mixture with another compound) | -0.41
3 | CN[C@@H]1[C@H](O)[C@H](NC)[C@H]2O[C@@]3(O)C(=O)C[C@@H](C)O[C@H]3O[C@@H]2[C@H]1O | 5.27
4 | CC(=O)N1CCN(c2ccc(OCC3CO[C@](Cn4ccnc4)(c4ccc(Cl)cc4Cl)O3)cc2)CC1 (some centres undefined) | -1.41
5 | N=C(N)N | -0.57
6 | O=C(O)c1c2ccccc2cc2ccccc12 | 0.83
7 | Cc1c(OCC(F)(F)F)ccnc1CS(=O)c1nc2ccccc2[nH]1 (centres undefined) | -0.05
8 | CCOC(=O)C(C)(C)Oc1ccc(Cl)cc1 | 0.96 and 0.46
9 | CC(=O)Nc1ccc(O)cc1 | 1.13
10 | CCC(=O)OC1CCC2C3CCc4cc(O)ccc4C3CCC12C (centres undefined) | -0.2
11 | CC1CCc2cc(F)cc3c(=O)c(C(=O)O)cn1c23 (centres undefined) | 0.75
12 | Nc1c2c(nc3ccccc13)CCCC2O (centres undefined) | 0.35
13 | CC(C[N+](C)(C)C)OC(N)=O (centres undefined) | 0.98
14 | O=c1c(-c2ccc(O)cc2)coc2cc(O)ccc12 | 2.91
15 | NC1(C(=O)O)CCCC1 | -0.18
16 | O=c1[nH]c(=O)n(C2C[C@@H](O)[C@@H](CO)O2)cc1F (some centres undefined) | 0.46
17 | CC(=O)O[C@]1(C(C)=O)CCC2C3C=C(Cl)C4=CC(=O)[C@@H]5C[C@@H]5[C@]4(C)C3CC[C@@]21C (some centres undefined) | -0.71
18 | CCCNC(=O)NS(=O)(=O)c1ccc(Cl)cc1 | -1.33
19 | NCCCCC(N)C(=O)NCC(=O)NC(Cc1cnc[nH]1)C(=O)NC(CCCCN)C(=O)O (centres undefined) (H-KGHK-OH; configuration not given here) | -1.59
20 | C[C@@H]1CC2C3C[C@H](F)C4=CC(=O)C=CC4(C)C3(F)[C@@H](O)CC2(C)C1C(=O)COC(=O)C(C)(C)C (some centres undefined) | 0.35

Row | Structure (SMILES) | normalized EAAT2 expression
21 | CCCCCC(C)N (centres undefined) | 1.78
22 | NS(=O)(=O)c1cc2c(cc1C(F)(F)F)NCNS2(=O)=O | 1
23 | COC(=O)Nc1nc2ccc(Sc3ccccc3)cc2[nH]1 | 0.76
24 | CCCCCCOc1ccccc1C(N)=O | 0.06
25 | O=C1NC(=O)C(c2ccccc2)(c2ccccc2)N1 | -1.51
26 | COc1cccc(OC)c1C(=O)N[C@@H]1C(=O)N2[C@@H]1SC(C)(C)[C@@H]2C(=O)O | -0.46
27 | CN(Cc1cnc2nc(N)nc(N)c2n1)c1ccc(C(=O)N[C@@H](CCC(=O)O)C(=O)O)cc1 | 0.11
28 | O=C1CN(/N=C/c2ccc([N+](=O)[O-])o2)C(=O)N1 | -0.62
29 | C=C[C@H]1CN2CC[C@H]1C[C@@H]2[C@H](O)c1ccnc2ccc(OC)cc12 | 0.15
30 | CSCCC(NC=O)C(=O)NC(CC(C)C)C(=O)NC(Cc1ccccc1)C(=O)O (centres undefined) | -0.92
31 | Cn1cc[nH]c1=S | 1.32
32 | CSc1ccc2c(c1)N(CCC1CCCCN1C)c1ccccc1S2 (centres undefined) | -1.44
33 | CC(=O)[C@H]1CCC2C3CCC4=CC(=O)CC[C@]4(C)C3CC[C@@]21C (some centres undefined) | -0.44
34 | C=C[C@@]1(C)CC(=O)[C@@]2(O)[C@](C)(O1)[C@@H](OC(C)=O)[C@@H](O)C1C(C)(C)CC[C@H](O)[C@@]12C (some centres undefined) | 2.72
35 | Cc1cc(C)nc(NS(=O)(=O)c2ccc(N)cc2)n1 | -0.49
36 | NNc1nncc2ccccc12 | -0.62
37 | CN(C)CCCN1c2ccccc2Sc2ccc(Cl)cc21 | -0.81
38 | O=C(O)C1=CCNCC1 | -0.7
39 | COc1cc(C(=O)NCc2ccc(OCCN(C)C)cc2)cc(OC)c1OC | 0.11
